# Source: the supplement of paper PMC8728848
# Some of the results follow.
# B1: Threefoil (Haloarcula marismortui) (protein)
# chain: GSSHHHHHHHHHHSSGLVPRGSHMGDGYYKLVARHSGKALDVENASTSDGANVIQYSYSGGDNQQWRLVDLGDGYYKLVARHSGKALDVENASTSDGANVIQYSYSGGDNQQWRLVDLGDGYYKLVARHSGKALDVENASTSDGANVIQYSYSGGDNQQWRLVDL
# Tests used:
# Assay in all cases: glycan array binding signal (z-score within array); higher = stronger binding
# Settings in all cases: glycan notation: IUPAC condensed, linker removed
# Fuc(a1-3)GlcNAc = target: Fuc(a1-3)GlcNAc
# Procedure, shortened: (§1)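 Glycan array data came from 3228 arrays in the Consortium for Functional Glycomics database, and only arrays with an available protein sequence were kept. Glycan names were put into IUPAC-condensed notation, and columns mapping to the same glycan were averaged. The binding signal is a within-array Z-score, averaged across arrays of one protein sequence run at different concentrations or buffers and across linkers. A negative Z-score can be read as non-binding.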
# [1] = target: Fuc(a1-3)[Gal(b1-4)]Glc6S
# Procedure, shortened: as §1
# [2] = target: Fuc(a1-3)[Gal(b1-4)]GlcNAc
# Procedure, shortened: as §1
# [3] = target: Fuc(a1-3)[Gal(b1-4)]GlcNAc(b1-2)Man
# Procedure, shortened: as §1
# [4] = target: Fuc(a1-3)[Gal(b1-4)]GlcNAc(b1-2)Man(a1-3)[Fuc(a1-3)[Gal(b1-4)]GlcNAc(b1-2)Man(a1-6)]Man(b1-4)GlcNAc(b1-4)GlcNAc
# Procedure, shortened: as §1
# [5] = target: Fuc(a1-3)[Gal(b1-4)]GlcNAc(b1-2)Man(a1-3)[Fuc(a1-3)[Gal(b1-4)]GlcNAc(b1-2)Man(a1-6)]Man(b1-4)GlcNAc(b1-4)[Fuc(a1-6)]GlcNAc
# Procedure, shortened: as §1
# [6] = target: Fuc(a1-3)[Gal(b1-4)]GlcNAc(b1-3)Gal(b1-3)[Fuc(a1-4)]GlcNAc
# Procedure, shortened: as §1
# [7] = target: Fuc(a1-3)[Gal(b1-4)]GlcNAc(b1-3)GalNAc
# Procedure, shortened: as §1
# [8] = target: Fuc(a1-3)[Gal(b1-4)]GlcNAc(b1-4)Gal(b1-4)[Fuc(a1-3)]GlcNAc
# Procedure, shortened: as §1
# [9] = target: Fuc(a1-3)[Gal(b1-4)]GlcNAc(b1-4)Gal(b1-4)[Fuc(a1-3)]GlcNAc(b1-4)Gal(b1-4)[Fuc(a1-3)]GlcNAc
# Procedure, shortened: as §1
# [10] = target: Fuc(a1-3)[Gal(b1-4)]GlcNAc(b1-6)GalNAc
# Procedure, shortened: as §1
# [11] = target: Fuc(a1-3)[Gal(b1-4)]GlcNAc(b1-6)[Gal(b1-3)GlcNAc(b1-3)]Gal(b1-4)Glc
# Procedure, shortened: as §1
# [12] = target: Fuc(a1-3)[Gal(b1-4)]GlcNAc6S
# Procedure, shortened: as §1
# [13] = target: Fuc(a1-3)[Gal3S(b1-4)]Glc
# Procedure, shortened: as §1
# [14] = target: Fuc(a1-3)[Gal3S(b1-4)]GlcNAc
# Procedure, shortened: as §1
# [15] = target: Fuc(a1-3)[Gal3S(b1-4)]GlcNAc6S
# Procedure, shortened: as §1
# [16] = target: Fuc(a1-3)[GalNAc(b1-4)]GlcNAc
# Procedure, shortened: as §1
# [17] = target: Fuc(a1-3)[GalNAc(b1-4)]GlcNAc6S
# Procedure, shortened: as §1
# Fuc(a1-4)GlcNAc = target: Fuc(a1-4)GlcNAc
# Procedure, shortened: as §1
# Fuc(b1-3)GlcNAc = target: Fuc(b1-3)GlcNAc
# Procedure, shortened: as §1
# Gal(a1-2)Gal = target: Gal(a1-2)Gal
# Procedure, shortened: as §1
# Gal(a1-3)Gal = target: Gal(a1-3)Gal
# Procedure, shortened: as §1
# Gal(a1-3)Gal(b1-3)GlcNAc = target: Gal(a1-3)Gal(b1-3)GlcNAc
# Procedure, shortened: as §1
# [18] = target: Gal(a1-3)Gal(b1-3)GlcNAc(b1-2)Man
# Procedure, shortened: as §1
# [19] = target: Gal(a1-3)Gal(b1-3)GlcNAc(b1-2)Man(a1-3)[Gal(a1-3)Gal(b1-3)GlcNAc(b1-2)Man(a1-6)]Man(b1-4)GlcNAc(b1-4)GlcNAc
# Procedure, shortened: as §1
# [20] = target: Gal(a1-3)Gal(b1-3)GlcNAc(b1-3)GalNAc
# Procedure, shortened: as §1
# [21] = target: Gal(a1-3)Gal(b1-3)GlcNAc(b1-6)GalNAc
# Procedure, shortened: as §1
# [22] = target: Gal(a1-3)Gal(b1-3)[Fuc(a1-4)]GlcNAc(b1-2)Man(a1-3)[Gal(a1-3)Gal(b1-3)[Fuc(a1-4)]GlcNAc(b1-2)Man(a1-6)]Man(b1-4)GlcNAc(b1-4)GlcNAc
# Procedure, shortened: as §1
# Gal(a1-3)Gal(b1-4)Glc = target: Gal(a1-3)Gal(b1-4)Glc
# Procedure, shortened: as §1
# Gal(a1-3)Gal(b1-4)GlcNAc = target: Gal(a1-3)Gal(b1-4)GlcNAc
# Procedure, shortened: as §1
# [23] = target: Gal(a1-3)Gal(b1-4)GlcNAc(b1-2)Man
# Procedure, shortened: as §1
# [24] = target: Gal(a1-3)Gal(b1-4)GlcNAc(b1-2)Man(a1-3)[Gal(a1-3)Gal(b1-4)GlcNAc(b1-2)Man(a1-6)]Man(b1-4)GlcNAc(b1-4)GlcNAc
# Procedure, shortened: as §1
# [25] = target: Gal(a1-3)Gal(b1-4)GlcNAc(b1-3)GalNAc
# Procedure, shortened: as §1
# [26] = target: Gal(a1-3)Gal(b1-4)GlcNAc(b1-6)GalNAc
# Procedure, shortened: as §1
# [27] = target: Gal(a1-3)Gal(b1-4)[Fuc(a1-3)]GlcNAc
# Procedure, shortened: as §1
# [28] = target: Gal(a1-3)Gal(b1-4)[Fuc(a1-3)]GlcNAc(b1-2)Man(a1-3)[Gal(a1-3)Gal(b1-4)[Fuc(a1-3)]GlcNAc(b1-2)Man(a1-6)]Man(b1-4)GlcNAc(b1-4)GlcNAc
# Procedure, shortened: as §1
# Gal(a1-3)GalNAc = target: Gal(a1-3)GalNAc
# Procedure, shortened: as §1
# [29] = target: Gal(a1-3)[Gal(a1-4)]Gal(b1-4)GlcNAc
# Procedure, shortened: as §1
# [30] = target: Gal(a1-4)Gal(b1-3)GlcNAc(b1-2)Man(a1-3)[Gal(a1-4)Gal(b1-3)GlcNAc(b1-2)Man(a1-6)]Man(b1-4)GlcNAc(b1-4)GlcNAc
# Procedure, shortened: as §1
# Gal(a1-4)Gal(b1-4)Glc = target: Gal(a1-4)Gal(b1-4)Glc
# Procedure, shortened: as §1
# Gal(a1-4)Gal(b1-4)GlcNAc = target: Gal(a1-4)Gal(b1-4)GlcNAc
# Procedure, shortened: as §1
# [31] = target: Gal(a1-4)Gal(b1-4)GlcNAc(b1-2)Man(a1-3)[Gal(a1-4)Gal(b1-4)GlcNAc(b1-2)Man(a1-6)]Man(b1-4)GlcNAc(b1-4)GlcNAc
# Procedure, shortened: as §1
# [32] = target: Gal(a1-4)Gal(b1-4)GlcNAc(b1-3)Gal(b1-4)Glc
# Procedure, shortened: as §1
# Gal(a1-4)GlcNAc = target: Gal(a1-4)GlcNAc
# Procedure, shortened: as §1
# Gal(a1-6)Glc = target: Gal(a1-6)Glc
# Procedure, shortened: as §1
binder,measurement,setting,value
B1,glycan array binding signal (z-score),Fuc(a1-3)GlcNAc,-0.234
same,glycan array binding signal (z-score),[1],-0.191
same,glycan array binding signal (z-score),[2],-0.151
same,glycan array binding signal (z-score),[3],-0.331
same,glycan array binding signal (z-score),[4],-0.27
same,glycan array binding signal (z-score),[5],-0.101
same,glycan array binding signal (z-score),[6],-0.059
same,glycan array binding signal (z-score),[7],-0.138
same,glycan array binding signal (z-score),[8],-0.037
same,glycan array binding signal (z-score),[9],-0.211
same,glycan array binding signal (z-score),[10],-0.234
same,glycan array binding signal (z-score),[11],0.266
same,glycan array binding signal (z-score),[12],-0.003
same,glycan array binding signal (z-score),[13],-0.243
same,glycan array binding signal (z-score),[14],-0.111
same,glycan array binding signal (z-score),[15],-0.217
same,glycan array binding signal (z-score),[16],0.175
same,glycan array binding signal (z-score),[17],-0.318
same,glycan array binding signal (z-score),Fuc(a1-4)GlcNAc,-0.313
same,glycan array binding signal (z-score),Fuc(b1-3)GlcNAc,-0.177
same,glycan array binding signal (z-score),Gal(a1-2)Gal,-0.036
same,glycan array binding signal (z-score),Gal(a1-3)Gal,-0.117
same,glycan array binding signal (z-score),Gal(a1-3)Gal(b1-3)GlcNAc,-0.298
same,glycan array binding signal (z-score),[18],-0.276
same,glycan array binding signal (z-score),[19],-0.157
same,glycan array binding signal (z-score),[20],-0.32
same,glycan array binding signal (z-score),[21],-0.205
same,glycan array binding signal (z-score),[22],-0.217
same,glycan array binding signal (z-score),Gal(a1-3)Gal(b1-4)Glc,-0.17
same,glycan array binding signal (z-score),Gal(a1-3)Gal(b1-4)GlcNAc,-0.158
same,glycan array binding signal (z-score),[23],-0.182
same,glycan array binding signal (z-score),[24],0.282
same,glycan array binding signal (z-score),[25],-0.279
same,glycan array binding signal (z-score),[26],-0.221
same,glycan array binding signal (z-score),[27],-0.292
same,glycan array binding signal (z-score),[28],-0.059
same,glycan array binding signal (z-score),Gal(a1-3)GalNAc,-0.135
same,glycan array binding signal (z-score),[29],-0.099
same,glycan array binding signal (z-score),[30],-0.07
same,glycan array binding signal (z-score),Gal(a1-4)Gal(b1-4)Glc,0.139
same,glycan array binding signal (z-score),Gal(a1-4)Gal(b1-4)GlcNAc,-0.041
same,glycan array binding signal (z-score),[31],-0.061
same,glycan array binding signal (z-score),[32],-0.193
same,glycan array binding signal (z-score),Gal(a1-4)GlcNAc,0.051
same,glycan array binding signal (z-score),Gal(a1-6)Glc,-0.125
